# Measured values published in PMC10668032.
# The other results are listed elsewhere or left out. At the low end of the ranking the order means little.
# Target: SIX1 homeodomain (reference allele) (UniProt Q15475)
# Experiment: universal protein binding microarray
# Conditions: Universal all-10-mer PBM (8x60K, AMADID 030236), 300 nM GST-tagged protein, Alexa Fluor 488 anti-GST; buffer, salt, pH and temperature not stated; high values mean tight binding; most listed sequences are background and not binding sites; double strand, one strand shown
row,Sequence,binding signal
1,CTCCATAC,0.114 E-score
2,ATATTCAT,0.0532 E-score
3,GAATCAAA,-0.108 E-score
4,AACACGGT,0.0514 E-score
5,CGGTCGGC,-0.159 E-score
6,CACGTCGC,-0.359 E-score
7,GTCTTACA,-0.0713 E-score
8,AGACCGAA,-0.0523 E-score
9,AACTGACT,-0.293 E-score
10,GAGTTAAA,-0.22 E-score
11,AAACGAGC,-0.0932 E-score
12,CGTCTTAC,0.0461 E-score
13,AATCGACC,-0.0876 E-score
14,AGGGTGGC,0.0536 E-score
15,TCTCCGAA,0.0408 E-score
16,CAGTTATC,0.176 E-score
17,ACCGGGAC,-0.23 E-score
18,GTTGGGCA,-0.145 E-score
19,CGTCTACA,-0.0416 E-score
20,CATTGTGA,0.107 E-score
21,GAGGGGGA,0.0181 E-score
22,GAACAGTA,-0.0144 E-score

row,Sequence,binding signal
1,ACTGGACA,-0.0329 E-score
2,GAACTGGA,0.0561 E-score
3,AGTACAAT,-0.0504 E-score
4,AACGTAAT,-0.24 E-score
5,CGATTTGA,-0.114 E-score
6,ATGATACA,0.449 E-score
7,CCCGTCGA,-0.0775 E-score
8,AGTGAGCG,-0.0297 E-score
9,AAAAGCGT,-0.306 E-score
10,CTTTTGTC,-0.233 E-score
11,AGAATTAA,-0.291 E-score
12,ATGTTCTA,-0.0275 E-score
13,ACAGGCCA,-0.161 E-score
14,AGTTCGTA,-0.192 E-score
15,AGGCGATA,0.357 E-score
16,AAGACTAC,-0.14 E-score
17,GTTCTTCA,-0.121 E-score
18,AGTTCATA,-0.0345 E-score
19,AGCACACC,0.0833 E-score
20,GCCAGCGC,-0.267 E-score
21,AAAGGTGT,0.129 E-score
22,CTGTTGGA,-0.103 E-score

row,Sequence,binding signal
1,AAAGGTCG,-0.274 E-score
2,TGCACCCA,0.04 E-score
3,CTCCTCAA,-0.131 E-score
4,AACACTCA,0.0752 E-score
5,CCCAGAGG,-0.102 E-score
6,CCCCACTA,0.0174 E-score
7,AAGGCCTA,-0.233 E-score
8,AGACGGAC,-0.143 E-score
9,CTCCGGTA,0.244 E-score
10,CCTAGTTA,-0.17 E-score
11,AAGTGTCC,-0.0725 E-score
12,CTAGCCCC,0.111 E-score
13,ATAAGCAC,-0.154 E-score
14,ACTACACA,-0.125 E-score
15,CTTGGCAC,-0.346 E-score
16,CCCTGCAA,0.0559 E-score
17,CATACCAG,0.171 E-score
18,AGACGTAG,-0.0694 E-score
19,TGCGCGCA,0.0228 E-score
20,ATCATAAT,0.229 E-score
21,ACCTTGGG,0.157 E-score
22,ATCATCGA,0.284 E-score

row,Sequence,binding signal
1,GGGCGGTA,0.217 E-score
2,CGACATCC,-0.0112 E-score
3,ATTCCGCA,-0.0491 E-score
4,GCGTGGGA,-0.122 E-score
5,AGGATCAG,0.368 E-score
6,CTAGACAA,-0.246 E-score
7,AACGGCCT,-0.108 E-score
8,AAATTGAA,-0.328 E-score
9,AGAAGACA,-0.00308 E-score
10,AAGACAAA,-0.223 E-score
11,GTTTACGA,-0.154 E-score
12,ACATAATC,0.114 E-score
13,GAGATGTA,0.215 E-score
14,ATCTTGCA,0.216 E-score
15,CCCTTACC,-0.0984 E-score
16,GTGCCAGA,-0.134 E-score
17,TGCCTAAA,-0.206 E-score
18,ATTTAAAT,-0.143 E-score
19,AGCCTACG,-0.0694 E-score
20,GTGCTACA,-0.115 E-score
21,TAGCCAAA,0.0299 E-score
22,CGCCTTAC,-0.0226 E-score

row,Sequence,binding signal
1,TTGGACAA,-0.191 E-score
2,CCACTGCG,-0.0653 E-score
3,AACATCAG,-0.258 E-score
4,ACGTGCGG,-0.172 E-score
5,ATACTAGG,0.275 E-score
6,CAAGCAAG,-0.346 E-score
7,AGAAGTTC,-0.277 E-score
8,ATTCGATG,-0.146 E-score
9,AGCATTAA,-0.176 E-score
10,TCAGACAA,-0.107 E-score
11,AATCACCG,-0.152 E-score
12,GGCTACGA,0.0415 E-score
13,CTGTTCAA,-0.197 E-score
14,AAATTCAA,-0.209 E-score
15,CGTATCTA,0.349 E-score
16,CCAAAAGG,-0.208 E-score
17,ACGGAAAT,-0.218 E-score
18,TAGCTAAA,-0.0454 E-score
19,TTAGACAA,-0.0367 E-score
20,GAGCGCGA,-0.0356 E-score
21,AAGCTCAA,-0.257 E-score
22,GAGTTAAC,-0.106 E-score
